Reference: the supplement of paper PMC3334620
Whole data set: some 33,000 sequences, median “E-score (-0.5 to 0.5)” near -0.036, cut for the highest 2% near 0.37. The list shows a part of the results.

molecular target: T1, Yer064c (UniProt P40041); assay: PBM E-score (8-mer binding enrichment) (E-score (-0.5 to 0.5)); higher = stronger / more preferred TF binding; most listed sequences are background and not binding sites; conditions: protein concentration: 200 nM; construct: GST-full length
T1 sequence: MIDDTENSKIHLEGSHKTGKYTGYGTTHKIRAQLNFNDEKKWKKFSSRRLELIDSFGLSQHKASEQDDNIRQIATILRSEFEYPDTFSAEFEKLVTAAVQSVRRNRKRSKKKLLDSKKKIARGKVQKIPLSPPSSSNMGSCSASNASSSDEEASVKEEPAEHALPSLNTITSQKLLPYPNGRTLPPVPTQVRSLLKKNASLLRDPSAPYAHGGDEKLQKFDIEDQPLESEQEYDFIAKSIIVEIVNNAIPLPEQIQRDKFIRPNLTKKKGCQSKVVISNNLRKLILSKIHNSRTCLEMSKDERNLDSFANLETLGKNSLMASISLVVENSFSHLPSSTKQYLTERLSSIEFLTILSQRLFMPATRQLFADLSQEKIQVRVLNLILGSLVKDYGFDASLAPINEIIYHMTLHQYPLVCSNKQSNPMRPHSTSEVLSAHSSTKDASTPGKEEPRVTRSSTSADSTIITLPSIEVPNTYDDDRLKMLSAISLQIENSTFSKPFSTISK
Summary of the method: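 Detection of bound protein used fluorescent anti-GST, with scans normalised by masliner. The proteins were GST-tagged yeast transcription factors applied at about 100-200 nM to universal all-10-mer Agilent arrays made double-stranded by primer extension. Each ungapped eight-base word, pooled with its reverse complement, was scored with an E-score from the Universal PBM Analysis Suite.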

Row | Sequence | PBM E-score
1 | GACCAAAA | 0.0327
2 | GCGGATAA | -0.0818
3 | AACTCAGT | 0.0865
4 | AGGCCTCC | -0.257
5 | ATTGGCTG | -0.157
6 | GGATTCAC | 0.196
7 | TCACCTCA | 0.15
8 | TATTGTAA | -0.0352
9 | CGGCTCAA | 0.0472
10 | AGCCCTAG | -0.116
11 | GCTAACCA | 0.178
12 | CGTGATGA | 0.104
13 | CATTAAAA | 0.0672
14 | ATGCTAAT | -0.0289
15 | AAGTCGCT | 0.269
16 | GGAGGCCC | -0.253
17 | CGCCGGGC | -0.251
18 | GAGCTTAC | 0.0416
19 | AAAATCTC | 0.016
20 | CTTCGAGC | -0.16
21 | GCCAAGAC | 0.0444
22 | CTGACCAC | -0.072
23 | ATTCGCCA | 0.125
24 | CCAAACTC | -0.129

Row | Sequence | PBM E-score
25 | AACGCTCG | -0.181
26 | CGACCTAC | 0.0021
27 | ACCCGCGC | 0.0809
28 | GATGGGGC | -0.444
29 | GGCCTACA | -0.0963
30 | CGGGGAAC | -0.245
31 | AAAATCGC | -0.0736
32 | CCGTACAG | -0.123
33 | GTTACTAA | 0.184
34 | CTGTTCGC | -0.0145
35 | CTGGGGTA | -0.176
36 | GCCCACCC | -0.139
37 | GTCGGGTA | -0.0525
38 | GGGTCTAA | 0.0345
39 | CTTAGATA | 0.0304
40 | ATACCGTA | -0.25
41 | AATCGCCT | 0.199
42 | ATGGCCAT | -0.0696
43 | GTTGTGAA | -0.00059
44 | CTATTGTC | -0.0877
45 | ACGGGAAT | -0.0476
46 | GATGGAAA | -0.149
47 | TCCTCTCA | -0.0954
48 | ACCAAGTA | 0.022

Row | Sequence | PBM E-score
49 | ACGGCAGG | -0.188
50 | ATTTACTA | 0.181
51 | GTATATGA | 0.189
52 | ATTTTTCG | 0.00581
53 | GGGTTCAA | -0.0488
54 | CCGGATAA | -0.0102
55 | GTTGGAGA | -0.0135
56 | CTCTCCCA | -0.0696
57 | AGAGTAAC | -0.00742
58 | ACGATAGG | -0.256
59 | TCAACTAA | 0.272
60 | GACGTTAA | 0.0734
61 | GTCTGGCA | -0.0983
62 | AACTTAGG | 0.0629
63 | GGGTGCGA | -0.211
64 | AGGTGTCA | 0.0196
65 | TGTTCAAA | 0.146
66 | CCGAAAAA | 0.0649
67 | CCATACAA | -0.0905
68 | AAAAATCA | 0.248
69 | GTTCAGGA | -0.0283
70 | GAGACGAC | 0.104
71 | CAAATTAC | -0.126
72 | CTTAGGAA | 0.172

Row | Sequence | PBM E-score
73 | CACTTTCC | -0.169
74 | ACCCGAAG | -0.106
75 | GCGTTAGC | -0.14
76 | ACCGTAGT | 0.0918
77 | TGTGTAAA | 0.187
78 | CAATCACA | 0.346
79 | ATGAATTC | 0.0747
80 | AAACCCAA | -0.0274
81 | AACAATCA | 0.327
82 | ATCATAGG | 0.27
83 | ACTCCCCG | 0.185
84 | AATTGCCG | -0.0553
85 | GGCGGACA | -0.28
86 | GCCAGTTA | -0.0971
87 | CTTAAATA | -0.0273
88 | CGACCCTA | -0.0957
89 | AGTCGTAT | 0.379
90 | GGTGACCA | 0.0718
91 | CCGATGCG | -0.223
92 | GGCTTGGA | -0.205
93 | CGGTACGA | -0.0482
94 | ACCCATTA | 0.13
